Results published in PubChem BioAssay AID1508642 (National Center for Advancing Translational Sciences (NCATS), 2021).
Out of some 43,000 compounds screened, about 200 (0.47%) were called active. Inconclusive results (about 12%) are left out. Calls follow the shape of the dose curve; as a rule, active = well fitted cell-killing curve with a large enough effect; inconclusive = small, poorly fitted or top-dose-only effect, or effect the other way; inactive = flat fitted curve, though single readings scatter. This is one part of the list.

Test: Cell viability qHTS assay in S16 Pmp22-F2sN cells; also: nearly all actives have a fitted effect of over 65% in size
Conditions: S16 Pmp22-F2sN Schwann cells (luciferase reporters placed in the Pmp22 gene) viability, CellTiter-Glo, 24 h; series mostly up to 57.5 µM; activity change, negative = cytotoxicity: at the top concentration
In short: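 Luminescence from CellTiter-Glo, read by CCD camera after a 15 min room-temperature incubation, served as the viability signal. Reporter Schwann cells (S16 Pmp22-F2sN) had been treated with pin-transferred compounds for 24 h at 37C.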
% is scaled to controls: 0 for no effect and ±100 for the full control effect.

**Q.** Which “activity change, negative = cytotoxicity” value does the source give for `Cc1cc2nc(-c3cccc(NC(=O)c4cccc5ccccc45)c3)oc2cc1C` here?
**A.** inactive: -10.8%

**Q.** For `Cc1cc(C)c(NC(=O)Cn2c(=O)c3cccn3c3ccccc32)c(C)c1`, which “activity change, negative = cytotoxicity” value is on record?
**A.** inactive: 6.02%

**Q.** Which “activity change, negative = cytotoxicity” value does the source give for `COc1cccc(-n2ccnc2SCC(=O)Nc2c(C)cc(C)cc2C)c1` here?
**A.** inactive: -3.37%

**Q.** Which “activity change, negative = cytotoxicity” value does the source give for `CCCCNC(=O)c1ccc2c(c1)N(Cc1ccc(F)cc1)C(=O)c1ccccc1S2=O` (configuration not stated) here?
**A.** inactive: -22.9%

**Q.** For `CC(=O)N1c2ccccc2CC1C(=O)N1CCN(c2ccccc2)CC1` (configuration not stated), which “activity change, negative = cytotoxicity” value is on record?
**A.** inactive: 2.54%

**Q.** With `Cc1ccc(NC(=O)c2c(C)cc(C)nc2SCC(=O)Nc2ccc(Br)cc2)cc1` as the compound, how does the “activity change, negative = cytotoxicity” value read?
**A.** inactive: 0.686%

**Q.** With `COc1ccc(N(Cc2cc3ccccc3[nH]c2=O)C(=O)c2cccc(Cl)c2)cc1` as the compound, how does the “activity change, negative = cytotoxicity” value read?
**A.** inactive: 17.1%

**Q.** Which “activity change, negative = cytotoxicity” value does the source give for `CCOC(=O)Cc1ccc(NC(=O)NCc2c(-n3cccc3)sc3c2CCCC3)cc1` here?
**A.** inactive: -12.5%

**Q.** Which “activity change, negative = cytotoxicity” value does the source give for `CCCCN1CC(c2nc3ccccc3n2CCCCOc2cc(C)ccc2C)CC1=O` (configuration not stated) here?
**A.** inactive: -7.63%

**Q.** For `O=C(CS(=O)(=O)c1cccc2nsnc12)Nc1ccccc1Cl`, which “activity change, negative = cytotoxicity” value is on record?
**A.** inactive: -0.375%

**Q.** With `O=S(=O)(c1ccc(OC(F)(F)F)cc1)N1CCC(c2nnnn2-c2ccc(F)cc2)CC1` as the compound, how does the “activity change, negative = cytotoxicity” value read?
**A.** inactive: -0.659%

**Q.** For `Cc1ccc(NC(=O)c2nc(S(C)(=O)=O)ncc2N(Cc2ccc(C(C)(C)C)cc2)Cc2ccco2)cc1C`, which “activity change, negative = cytotoxicity” value is on record?
**A.** inactive: 1.53%

**Q.** With `CN(C(=O)CCc1nc(-c2ccccc2F)no1)c1ccc(Cl)cc1` as the compound, how does the “activity change, negative = cytotoxicity” value read?
**A.** inactive: -6.99%

**Q.** For `CCN1CCSc2ccc(C(=O)NCc3ccc(OC(C)C)cc3)cc21`, which “activity change, negative = cytotoxicity” value is on record?
**A.** inactive: 10.8%

**Q.** For `CCn1cc(C(=O)OCC(=O)Nc2ccc(C)c(Cl)c2)c(=O)c2ccc(C)nc21`, which “activity change, negative = cytotoxicity” value is on record?
**A.** inactive: 10.3%

**Q.** With `COc1ccc(-c2noc(CSCC(=O)Nc3cc(OC)c(OC)c(OC)c3)n2)cc1OC` as the compound, how does the “activity change, negative = cytotoxicity” value read?
**A.** inactive: -1.64%

**Q.** For `CCOc1ccc(-c2cc3c(=O)n(CC(=O)NCc4ccc(C)cc4)ccn3n2)cc1`, which “activity change, negative = cytotoxicity” value is on record?
**A.** inactive: 5.52%

**Q.** Which “activity change, negative = cytotoxicity” value does the source give for `COc1cc(C(=O)NCC(c2ccc3c(c2)OCO3)N2CCOCC2)cc(OC)c1OC` (configuration not stated) here?
**A.** inactive: 10.2%

**Q.** Which “activity change, negative = cytotoxicity” value does the source give for `CCCC(O)c1nc2ccccc2n1CCCOc1ccc(Cl)cc1` (configuration not stated) here?
**A.** inactive: -3.39%

**Q.** For `COc1cc(/C=C/c2nc(C#N)c(N3CCN(C)CC3)o2)cc(OC)c1OC`, which “activity change, negative = cytotoxicity” value is on record?
**A.** inactive: -3.31%

**Q.** Which “activity change, negative = cytotoxicity” value does the source give for `CSc1cccc(NC(=O)C2CCN(c3nc4ccccc4[nH]3)CC2)c1` here?
**A.** inactive: 3.72%

**Q.** With `Cc1c(-c2nc(-c3ccccc3)no2)nnn1-c1ccc(F)c(Cl)c1` as the compound, how does the “activity change, negative = cytotoxicity” value read?
**A.** inactive: 9.73%

**Q.** Which “activity change, negative = cytotoxicity” value does the source give for `CCc1ccc(NC(=O)Cn2c(=O)n(-c3ccc(Cl)c(Cl)c3)c(=O)c3c(C)c(C)sc32)cc1` here?
**A.** inactive: 16.3%

**Q.** Which “activity change, negative = cytotoxicity” value does the source give for `COc1ccc(Cl)c2sc(NC(=O)c3ccc(S(=O)(=O)N4CCOCC4)cc3)nc12` here?
**A.** inactive: -8.95%

**Q.** With `COc1cccc(NS(=O)(=O)c2ccc3c(c2)n(C)c(=O)n3C)c1` as the compound, how does the “activity change, negative = cytotoxicity” value read?
**A.** inactive: -22%

**Q.** Which “activity change, negative = cytotoxicity” value does the source give for `COc1ccc(NC(=O)COCc2cc(-c3ccc4c(c3)OCO4)on2)cc1` here?
**A.** inactive: 3.3%

**Q.** Which “activity change, negative = cytotoxicity” value does the source give for `CN(C(=O)c1ccc2c(c1)N(Cc1cccc(Cl)c1)C(=O)c1ccccc1S2(=O)=O)C1CCCCC1` here?
**A.** inactive: -23%

**Q.** With `O=C(CSc1nnc(-c2ccccc2Cl)o1)N1CCCc2ccccc21` as the compound, how does the “activity change, negative = cytotoxicity” value read?
**A.** inactive: -13%

**Q.** For `COc1ccc(NC(=O)c2c(NCc3cccs3)sc3c2CCC(C)C3)c(OC)c1` (configuration not stated), which “activity change, negative = cytotoxicity” value is on record?
**A.** inactive: -7.55%

**Q.** With `CC(=O)N1CCc2cc(Br)cc(S(=O)(=O)CCC(=O)N3CCN(c4ccc(F)cc4)CC3)c21` as the compound, how does the “activity change, negative = cytotoxicity” value read?
**A.** inactive: 3.9%

**Q.** Which “activity change, negative = cytotoxicity” value does the source give for `Cc1c(C(=O)N(Cc2ccccc2F)C2CCS(=O)(=O)C2)oc2ccccc12` (configuration not stated) here?
**A.** inactive: -9.81%

**Q.** With `Cc1nn(C)c2c1c(C(F)(F)F)cc(=O)n2C(C)C(=O)Nc1ccccc1F` (configuration not stated) as the compound, how does the “activity change, negative = cytotoxicity” value read?
**A.** inactive: -0.0837%

**Q.** With `CCOc1ccc(C(=O)c2cn(CC(=O)Nc3ccc(Cl)cc3)c3cc4c(cc3c2=O)OCO4)cc1` as the compound, how does the “activity change, negative = cytotoxicity” value read?
**A.** inactive: -7.11%

**Q.** Which “activity change, negative = cytotoxicity” value does the source give for `COc1ccc(-c2nnc(SCC(=O)Nc3cccc(C(F)(F)F)c3)s2)cc1` here?
**A.** inactive: -21.9%

**Q.** With `CC(C)(C)OC(=O)N1CCC(c2c(C(=O)NCc3ccccc3)cnn2-c2cccc(F)c2)CC1` as the compound, how does the “activity change, negative = cytotoxicity” value read?
**A.** inactive: -23.8%

**Q.** Which “activity change, negative = cytotoxicity” value does the source give for `COc1ccccc1-c1nc2n(n1)C(c1ccccc1Cl)C(C(=O)Nc1cccnc1)=C(C)N2` (configuration not stated) here?
**A.** inactive: -0.56%

**Q.** For `CCCCn1cc(S(=O)(=O)c2ccc(C)cc2)c(=O)c2cc(F)c(N3CCCCC3)cc21`, which “activity change, negative = cytotoxicity” value is on record?
**A.** inactive: 0.0666%

**Q.** Which “activity change, negative = cytotoxicity” value does the source give for `CCOc1ccccc1NC(=O)CSc1nnc2[nH]c(=O)cc(C)n12` here?
**A.** inactive: 1.85%

**Q.** With `Cc1cc(O)c(C(c2ccccc2)N2CCCCC2)c(=O)n1Cc1ccco1` (configuration not stated) as the compound, how does the “activity change, negative = cytotoxicity” value read?
**A.** inactive: 1.8%

**Q.** With `COc1ccc(C)cc1NC(=O)c1ccc(NS(=O)(=O)c2c(C)noc2C)cc1` as the compound, how does the “activity change, negative = cytotoxicity” value read?
**A.** inactive: -0.116%

**Q.** For `COc1ccc(-c2noc(CN(C)S(=O)(=O)c3c(C)cc(C)cc3C)n2)cc1OC`, which “activity change, negative = cytotoxicity” value is on record?
**A.** inactive: -7.88%

**Q.** Which “activity change, negative = cytotoxicity” value does the source give for `CCC(C(=O)Nc1cccc(Cl)c1C)n1nc(C)c2sc3ccccc3c2c1=O` (configuration not stated) here?
**A.** inactive: 3.2%

**Q.** With `CC(=O)N1c2ccccc2C(=O)C1N1CCN(c2ccccc2F)CC1` (configuration not stated) as the compound, how does the “activity change, negative = cytotoxicity” value read?
**A.** inactive: -4.73%

**Q.** For `CCOC(=O)c1ccc(NC2=CC(c3ccc(OCC)cc3)N(c3ccc(C(=O)OCC)cc3)C2=O)cc1` (configuration not stated), which “activity change, negative = cytotoxicity” value is on record?
**A.** inactive: 7.64%

**Q.** Which “activity change, negative = cytotoxicity” value does the source give for `CCOC(=O)c1cnc2cc(C(F)(F)F)ccc2c1Nc1cc(C)ccc1OC` here?
**A.** inactive: 5.15%

**Q.** For `Cc1ccc(-c2nc(CCNC(=O)c3ccc(C)c(C)c3)cs2)cc1`, which “activity change, negative = cytotoxicity” value is on record?
**A.** inactive: -3.79%

**Q.** Which “activity change, negative = cytotoxicity” value does the source give for `Cc1ccc(S(=O)(=O)c2c(O)cc(C)c(NS(=O)(=O)c3ccc(Br)cc3)c2C)cc1` here?
**A.** inactive: -15.2%
